Laboratory results published in the RNAGym collection of RNA variant scans (doi:10.1073/pnas.2313332121).
Variants at the floor of the assay are shown more often than the library holds them.

B1: TPR 5TU (parent)
chain: GGAUCUUCUCGAUCUAACAAAAAAGACAAAUCUGCCACAAAGCUUGAGAGCAUCUUCGGAUGCAGAGGCGGCAGCCUUCGGUGGCGCGAUAGCGCCAACGUUCUCAACUAUGACACGCAAAACGCGUGCUCCGUUGAAUGGAGUUUAUCAUG

Variants of: B1
Assay: polymerase ribozyme fitness, log enrichment relative to wild type (log ratio); higher = more active; in vitro selection for triplet polymerase activity
Method in brief: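 Both subunits of a heterodimeric triplet polymerase ribozyme were given their own mutant library, built by PCR and transcribed. Each library was annealed with a biotinylated primer, the partner subunit and triplets, incubated frozen at −7 °C, and its extended constructs gel-excised, captured on streptavidin beads and amplified by RT-PCR, all in one round done in triplicate. Fitness is the logarithm of genotype enrichment relative to wild-type enrichment, with replicates averaged by inverse-variance weighting. That logarithm is base 2, and Illumina-sequenced genotypes needed ≥10 input reads and ≥1 read per output.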

Variant | polymerase ribozyme fitness (log ratio)
GGAUCUUCUCGAUCUAACUAAAAAGACAAAUCAACCACAAAGCUUGAGAGCAUCUUCGGAUGCAGAGGCGGCAGCCUUAGGUGGCGCGAUAGCGCCAACGUUCUCAACUAUGACACGUAAAACGAGUGCUCUAUUGAAUGGCGUUUAGCAUG [A19U U33A G34A C79A C118U C125A C132U G133A A142C U148G] | ≤ -4.2
GGAUCUUCUCGAUCUAACUAAAAAGACAAAUCCGCCACAAAGGUUGAGAGCAUCUUCGGAUGCAGAGGCGGCAGCCUUCGAUGGCGCGAUAGCGCCAACGUUCUCAACUAUGACACGCAAAACGCGUGCUCCGUUGAAUGGAGUUUAUCAUG [A19U U33C C43G G81A] | ≤ -4.2
GGAUCUUCUCGAUCUAACUAAAAAGACAAAUCCGCCACAAAGCUUGAGAGCAUCUUCGGAUGCAGAGGUGGCAGCCUUCGGUGGCGCGAUAGCGCCAACGUUCUCAACUAUGACACGCAAAACGCUUGCUCCGUUGAAUGGAGUUUAUCAUG [A19U U33C C69U G126U] | -0.898
GGAUCUUCUCGAUCUAACUAAAAAGACAAAUCGGCCACAAAGCUUGAGAGCAUCUUCGGAUGCCGAGGCGGCAGCCUUCGGUGGCGCGAUAGCGCCAACGUUCUCAGCUAUGACACGCAAAACGCGGGCUCCGUUGAAUGGAGUUUAUCAUG [A19U U33G A64C A107G U127G] | ≤ -4.2
GGAUCUUCUCGAUCUAACUAAAAAGACAAAUCUGCCACAAAGCGUGAGACCAUCUUCGGAUGCAGAGGCGGCGGCAUUCGGUGGCGCGAUAGCGCCAACGUUCUCAACUAUGACACGCAAAACGCGUGCUCCGUUGAAUAGAGUUUAUCAUG [A19U U44G G50C A73G C76A G140A] | ≤ -4.2
GGAUCUUCUCGAUCUAACUAAAAAGACAAAUCUGCCACAAAGCUGGAGAGCAUCUUCGGAUGCAGAGGCGGCAGCCUUCGGUGGCGCGAUAGCGCCAACGUUCUCAACUAUGACACGCAAAACGCGUGCUCCGUUGAAUGGAGUUUAUCAUG [A19U U45G] | -0.38
GGAUCUUCUCGAUCUAACUAAAAAGACAAAUCUGCCACAAAGCUGGAGAGCAUCUUCGGAUGCAGAGGCGGCAGCCUUCGGUCGCGCGAUAGCGCCAACGUUCUCAACUAUGACACGCAAAACGCGAGCUCCGUUGAAUGGAGUUUAUCAUG [A19U U45G G83C U127A] | ≤ -4.2
GGAUCUUCUCGAUCUAACUAAAAAGACAAAUCUGCCACAAAGCUUGAGAGCAACUUCGGAUGCAGAGGCGGCAGCCUUCGGUGGAGCGAUAGCGCCAACGUUCUCAACUAUGACACGCAAAACGCGUGCUCCGUUGAAUGGAGUUUAUCAUG [A19U U53A C85A] | -3.78
GGAUCUUCUCGAUCUAACUAAAAAGACAAAUCUGCCACAAAGCUUGAGAGCAACUUCGGAUGCAGAGGCGGCAGCCUUCGGGGGCGGGAUAGCGCCAACGUUCUCAACUAUGACACGCAAAACGCGUGCUCCGUUGAAUAGAGUUUAUCAUG [A19U U53A U82G C87G G140A] | ≤ -4.2
GGAUCUUCUCGAUCUAACUAAAAAGACAAAUCUGCCACAAAGCUUGAGAGCAUCAUCGGGUGCAGAGGCGGCAGCCUUCGGUGGCGCGAUAGCUCCAACGUUCUCAACUAUGACACGCAAAACGCGUGCUCCGUUGAAUGGAUUUUAUCAUG [A19U U55A A60G G94U G143U] | -3.55
GGAUCUUCUCGAUCUAACUAAAAAGACAAAUCUGCCACAAAGCUUGAGAGCAUCAUCGGAUGCAGAGGCGGUAGCCUUCGGUGGCGCGAUAGCGCCAACGUUCUCAACUAUGACACGCAAAACGCGUGCUCCGUUGAAUGGAUUUUAUCAUG [A19U U55A C72U G143U] | ≤ -4.2
GGAUCUUCUCGAUCUAACUAAAAAGACAAAUCUGCCACAAAGCUUGAGAGCAUCGUCGGAUGCAGAGGCGGCAGCCUUCGGUGGGGCGAUAGCGCUAACGUUCUCAACUAUGACAAGCAAAACGCGUGCUCCGUUGAAAGGAGUUUAUCAUG [A19U U55G C85G C96U C116A U139A] | ≤ -4.2
GGAUCUUCUCGAUCUAACUAAAAAGACAAAUCUGCCACAAAGCUUGAGAGCAUCGUCGGAUGCAGAGGCGGCAGCCUUCGGUGGCUCGAUAGCGCCAACGUUCUCAACUAUGACACGCAAAACGCGUGCUCCGUUGAAUGGAGUUUAUCAUG [A19U U55G G86U] | -1.7
GGAUCUUCUCGAUCUAACUAAAAAGACAAAUCUGCCACAAAGCUUGAGAGCAUCUACGGAUGCAGAGGCGGCGGCCUUCGGUGGGGCGAUAGCGCCAACGUUCUCAACUAUGACACGCAAAACGCGUGCUCCGUUCAAUGGAGUUUCUCAGG [A19U U56A A73G C85G G136C A147C U151G] | ≤ -4.2
GGAUCUUCUCGAUCUAACUAAAAAGACAAAUCUGCCACAAAGCUUGAGAGCAUCUUCGGAAGCAGAGGCGGCAGGCUUCGGUGGCGCGAUAGCGCCAACGUUCUCAAAUAUGACACGCAAAACGCGUGCUCCGUUGAAUCGAGUUUAUCAUG [A19U U61A C75G C108A G140C] | ≤ -4.2
GGAUCUUCUCGAUCUAACUAAAAAGACAAAUCUGCCACAAAGCUUGAGAGCAUCUUCGGAUGCAGAGGCGGCAGCCAUCGGUGCAGCGAUAGCGCCAACGUUCUCAACUAUGACACGCAAAACGCGUGCUCCGUUGAAUGGAGAUUAUCAUG [A19U U77A G84C C85A U144A] | ≤ -4.2
GGAUCUUCUCGAUCUAACUAAAAAGACAAAUCUGCCACAAAGCUUGAGAGCAUCUUCGGAUGCAGAGGCGGCAGCCUUCGGCGGCGCGAUAGCGCCAACGUUGUCAACUAUUACACGCAAAACGCGUGCUCCGUUGAAUGGAGUUUAUCAUG [A19U U82C C103G G112U] | ≤ -4.2
GGAUCUUCUCGAUCUAACUAAAAAGACAAAUCUGCCACAAAGCUUGAGAGCAUCUUCGGAUGCAGAGGCGGCAGCCUUCGGUGGCGCGAUAGCGCCAACGUUCUCAACUAUGACACGCAAAACGCGUGCUCCGUUGAAUGGAGAUUAUCAUG [A19U U144A] | -0.138
GGAUCUUCUCGAUCUAACACCAAAGACAAAUCUGCCACAAACCUUGAGAGUAUCUACGGAUGCAGAGGCGGCAGCCUUCGGUGGCGCGAUAGCGCCAACGUUCUCAACUAUGACACGCAAAUCGCGUGCUCCGUUGAAUGGAGUUUAUCAUU [A20C A21C G42C C51U U56A A122U G152U] | ≤ -4.2
